# From ChEMBL document CHEMBL4888484, “Replenishing the malaria drug discovery pipeline: Screening and hit evaluation of the MMV Hit Generation Library 1 (HGL1) against asexual blood stage Plasmodium falciparum ,using a nano luciferase reporter read-out” (2022)
# About 420 (8.8%) of roughly 4,800 compounds showed an effect of 50% or more. The list shows a part of the results.
# Test system: Plasmodium falciparum
# Assay: Confirmatory screen in NF54 nanoGlo assay, in single point, at 2uM, 72h
# Format: functional, Erythrocyte
# Settings: timepoint 72 hour
row,Compound,% Inhibition [%]
1,COc1ccc(Cl)cc1C(=O)N(C1CCOCC1)[C@H]1CCCN(S(C)(=O)=O)C1,-9
2,Cn1ncc(C(=O)CC#N)c1C(F)(F)F,-16
3,COc1ccc(NC(=O)C2(N(Cc3ccccc3)C(=O)Cn3nnc4ccccc43)CCCCC2)cc1,38
4,NS(=O)(=O)c1cc(C(=O)N2CCc3ccccc3C2)cs1,-3
5,O=C(Cn1c(Cc2ccc(Cl)cc2)nc2ccccc21)Nc1ccccc1,14
6,COCC[C@@H](CO)NC(=O)NCc1cc2cc(F)ccc2s1,5
7,CCOc1cc(C(c2c(C)n(C)n(-c3ccccc3)c2=O)c2c(C)n(C)n(-c3ccccc3)c2=O)ccc1OCc1ccccc1,48
8,COc1ccccc1[C@H]1CCN(S(=O)(=O)c2ccccc2)C1,-4
9,COc1ccccc1C1CC1c1nc(CC(=O)NC2CCCC2)no1 (stereo not given),-8
10,CC(C)(C)c1noc(OCc2cccc(C#N)c2)n1,4
11,COc1ccccc1N1CCN(CCC(=O)NC2CCCCC2)CC1,-2
12,COc1ccc2c(c1)CCc1c[nH]nc1-2,-7
13,Cc1nnc([C@@H]2COCCN2Cc2csc(C)c2)o1,0
14,O=C(Nc1ccc(C2(c3ccc(NC(=O)c4ccc(F)cc4)cc3)c3ccccc3C(=O)c3ccccc32)cc1)c1ccc(F)cc1,67
15,Cn1c(-c2ccc(Br)cc2)cn2cc(-c3ccc(Cl)cc3)nc12,-5
16,CCCCCC1CCC(c2ccc(-c3ccc(CC)cn3)cc2F)CC1 (stereo not given),5
17,O=C(Nc1ccccc1Br)c1cc(-c2ccc3c(c2)CCO3)no1,-4
18,Cc1ccn(-c2cc(-c3cccs3)cc(-n3ccc(C)n3)n2)n1,5
19,Cc1noc(Cn2c(=O)c3cc4c(cc3n(CC(=O)Nc3cccc(Cl)c3)c2=O)OCO4)n1,3
20,Cc1ccc(S(=O)(=O)Nc2c(S(=O)(=O)c3ccc(C)cc3)c3nc4ccccc4nc3n2C[C@H]2CCCO2)cc1,52
21,O=C(N[C@H]1C[C@H]2C(=O)Nc3ccccc3C(=O)N2C1)c1cccnc1,3
22,Cc1ccccc1N1CCN(C(=O)c2csc(C(=O)NC3CCCC3)n2)CC1,-7
23,CC(=O)c1ccc(NC(=O)c2cnc(-c3ccc4c(c3)CCO4)s2)cc1,-3
24,Cc1cnn(CCCNC(=O)c2ccc3[nH]c4c(c3c2)CCCC4)c1,-4
25,COc1cccc(NC(=O)c2ccccc2C(=O)OCCN2CCOCC2)c1,-2

row,Compound,% Inhibition [%]
1,Cc1c(Br)c(C(F)F)nn1CC(=O)N[C@@H](C)C(C)(C)C,-16
2,CON(C)C[C@H](O)Cn1cc(Nc2ncnc3cc(F)ccc23)cn1,-2
3,CC1CCCCC1N(C)C(=O)c1cc2ccccc2c(=O)[nH]1 (stereo not given),-9
4,COc1ccc(-n2nc(-c3ccc(C)cc3)c3cnc4c(F)cccc4c32)cc1,-10
5,CC[C@H]1Cn2c(C(=O)NCCN3CCCC3)cc3cccc(c32)O1,-17
6,O=C(NC1CCCC1)c1nc(C(=O)N2CCN(c3cccc(Cl)c3)CC2)cs1,-13
7,Fc1cccc(Cl)c1Cn1ccc(Nc2nnc(Cn3cc(Cl)cn3)s2)n1,-8
8,COC(=O)[C@@](c1cc(Cl)c(O)c(Cl)c1)(N1CCOCC1)C(F)(F)F,-1
9,Cc1cc(C)n2c(-c3cccnc3)nnc2n1,-6
10,Cc1ccc(S(=O)(=O)c2c(NS(=O)(=O)c3ccc(F)cc3)n(CCc3ccccc3)c3nc4ccccc4nc23)cc1,100
11,O=C1CCC(C(=O)NCC2CCCOC2)(c2ccccc2)CN1 (stereo not given),-12
12,Cc1cc2nc(C)c(=O)n(Cc3ccc(C(=O)NCc4ccco4)cc3)c2cc1C,1
13,CCOc1cc2c(cc1OC)[C@@H](N)CC2=O,1
14,C[C@H]1CS(=O)(=O)N(c2ccc(C(=O)Nc3ccccc3Oc3ccccc3)c(Cl)c2)C1=O,-5
15,COc1ccccc1C(=O)NC1=NN2C(=NC(c3ccc(Cl)cc3)=C[C@H]2c2ccc(Cl)cc2)N1,94
16,Cc1sc2ncnc(N3CCCCC3)c2c1C(=O)Nc1cc(F)ccc1Cl,1
17,O=C(c1cccc2cc[nH]c12)N(CC1CC1)C1CC1,-4
18,CCn1c(=O)c(N2CCC[C@H](C(=O)NCc3ccccc3OC)C2)nc2cccnc21,-7
19,O=C1c2cnccc2[C@](O)(c2ccccc2)N1Cc1ccccc1,-16
20,Cc1ccsc1NC(=O)OC(C)(C)C,1
21,CNc1nccc(OCc2ccccc2)n1,0
22,COc1ccc(CC[C@H](C)NC(=O)NCCCN2CCCC2=O)cc1,7
23,Cn1c(Cc2n[n+]3c(-c4ccccc4)cc(-c4ccccc4)nc3n2C)n[n+]2c(-c3ccccc3)cc(-c3ccccc3)nc12,99
24,COc1ncnc2c1CN(C(=O)NCC1(Cc3ccccc3)CCC1)CC2,-14
25,O=C(Cc1ncc(C(F)(F)F)cc1Cl)c1ccc(Cl)cc1Cl,-6

row,Compound,% Inhibition [%]
1,CN1CCCN(c2ccc(NC(=O)c3nn(-c4ccccc4)c(=O)c4ccccc34)cc2F)CC1,49
2,C=CCNCc1cccc(OC)c1OCC(=O)NC(C)(C)C,2
3,COc1ccc(CN(c2ccc(C)cc2)S(=O)(=O)c2ccc3nnc(C)n3c2)cc1,-8
4,CC(C)c1nccn1CCC(=O)Nc1ncn(C2CCCCC2)n1,-9
5,c1ccc(Nc2nc(-c3ccccc3)cc(-c3ccccc3)n2)cc1,3
6,Cc1cc(C)c(NC(=O)OCc2cccc3cccnc23)c(C)c1,83
7,c1cc2c(cc1[C@H]1NCCCCCCO1)OCO2,-14
8,Cc1noc(C)c1C(=O)N[C@@H](CC(C)C)C(=O)OCc1ccccc1,-4
9,O=C1NC2(CCCCCCC2)C(=O)N1CN(C1CCCCC1)C1CC1,0
10,CC(=O)NCC(=O)N(Cc1ccco1)C1(C(=O)NC2CCCCC2)CCCCC1,-4
11,CCN(CC)C(=O)c1cnc2snc(C)c2c1N1CCC(C(=O)Nc2c(C)cc(C)cc2C)CC1,57
12,COc1ccc(C)cc1-n1ccc(C(=O)N2CCCc3c(C(N)=O)cccc32)n1,-11
13,O=C(C1CCC1)N1CCC[C@H]1c1nc(C2CCOCC2)no1,4
14,O=C(CCNC(=O)C1CC1c1c(F)cccc1Cl)NC1CCS(=O)(=O)C1 (stereo not given),-18
15,O=C(Nc1nncs1)NC(C1CC1)C1CC1,0
16,NC(=NCCOc1ccc(Br)cc1)N1CCOCC1,3
17,Cc1cc(NC(=O)c2ccccn2)n(-c2nc3ccccc3o2)n1,88
18,Cc1ccnc(Nc2ccc(N3CCNCC3)nn2)c1,36
19,O=C(NC1CC(c2ccccc2)C1)N1CCS(=O)(=O)CC1 (stereo not given),-7
20,CCOC(=O)N1CCC(NC(=O)c2cn[nH]c2-c2ccc(OCC)c(Cl)c2)CC1,2
21,O=C(Nc1ccccc1)N1CCc2scc[n+]2-c2ccccc21,-11
22,Cc1nc(-c2ccccc2)cc2nn(CC(=O)NC3CCCCC3)c(=O)n12,-13
23,Cc1ccc(NC(=O)CC(C)(C)CC2=Nc3ccccc3S(=O)(=O)N2)cc1F,-3
24,CS(=O)(=O)N1CCC(C(=O)Nc2c(C(N)=O)sc3nc(C(F)F)cc(C4CC4)c23)CC1,-2
25,O=C(Nc1ccc2c(c1)cc(C(=O)Nc1ccc(C(F)(F)F)cc1)n2Cc1cccc(F)c1)c1ccccc1Cl,-13

row,Compound,% Inhibition [%]
1,Cc1cc(C(=O)NCC(=O)NC(C)(C)C)no1,7
2,NC(=O)c1nnn2c1C(=O)N[C@H](c1ccc(Cl)cc1)C2,-11
3,O=S1(=O)CCN(OCc2ccc(Cl)cc2)CC1,3
4,O=C(c1cnc2ccc(F)cc2c1N1CCN(c2ccccn2)CC1)N1CCCC1,1
5,CC(=O)c1cccc(NC(=O)[C@@]23CCC(=O)N2c2ccccc2C(=O)N3C)c1,76
6,Cc1ccc([C@@H]2C=C(C(=O)O)Nc3c(C(N)=O)nnn32)cc1,-14
7,Cc1cc(C)c2nc(C)cc(Nc3ccc(O)cc3)c2c1,87
8,CC(C)c1nc(C(=O)Nc2ccccc2CN2CCNC2=O)cs1,3
9,CO/C(=N/C(=O)c1cccc(OC)c1)N[C@H]1CCCc2ccccc21,-7
10,CCOC(=O)COc1ccc(C)cc1-c1ccno1,-5
11,CCOc1ccc(CCN2C(=O)c3c(C(=O)OC)ncn3C[C@@]2(C)C(=O)NC2CCCCCC2)cc1,-3
12,O=C1CCC(Nc2ccc(Br)cn2)C(C2CC2)N1 (stereo not given),1
13,CCOC(=O)c1nc(-c2ccc(N(CC)CC)nc2)no1,6
14,Cc1nnc2ccc(S(=O)(=O)N(Cc3ccccc3F)c3ccccc3)cn12,-16
15,COc1ccc(CC[C@@H]2NCCn3cccc32)cc1,-5
16,O=C(O)C1C2C=CC(C2)C1C(=O)Nc1cccc2ncccc12 (stereo not given),5
17,CC(=O)NC1CN(C(=O)Nc2ccc(C(C)C)c(F)c2)C1,-17
18,O=C(COc1ccccc1)Nc1ccc2c(c1)C(O)=Nc1cccnc1O2,58
19,CCOC(=O)C(Cc1ccc(OCc2c(F)cccc2Cl)cc1)(NC(C)=O)C(=O)OCC,2
20,Nc1cc(C(F)(F)F)c(Br)cc1Br,-16
21,Cc1ccc(Nc2[nH]nnc2C(=O)N[C@H]2CCc3ccccc32)cc1C,2
22,O=C(Nc1nc(-c2cccc3ccccc23)cs1)c1c(Cl)cccc1Cl,-7
23,O=C(NCC(=O)N(C[C@H]1CCCO1)C1(C(=O)NC2CCCCC2)CCCCC1)c1ccccc1,12
24,CC(=O)Nc1ncc(Br)cc1C,3
25,CC(C)[C@@H]1CC[C@H](C)C[C@H]1OC(=O)Cn1cc(-c2ccc(Cl)cc2)[n+]2c1CCC2,84
